The supplement of paper PMC11417369
± gives the standard deviation of the averaged measurements. Some of the results follow.

tested on: PfAP2-G AP2 domain (GST-tagged); assay: gcPBM binding intensity (ln(normalized median fluorescence intensity)); higher = stronger DNA binding
Summary of the method: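 The binding buffer was 1× PBS containing 1% milk, 0.2 mg/ml BSA, 0.5% salmon testes DNA and 0.03% Triton X-100. In it, GST-tagged P. falciparum DNA-binding domains expressed in E. coli were applied for 1 h to an Agilent 4 × 180k array of primer-extended double-stranded 36-bp intergenic genomic probes plus negative controls. Binding intensity, read with Alexa488 anti-GST antibody and a 488 nm scan, is the highest Masliner-normalised natural-log median intensity across replicate spots of either probe orientation.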

| Sequence | gcPBM binding intensity (ln) |
| --- | --- |
| ATGTTTCTATAGATTTGTACATATTTCATATGAATA [XGTACX_site1053] | 10.9 ± 0.59 |
| TTATTTTTTGTATGAACACACAACTTAATTATGATG [CACACA_site2448] | 10.3 ± 0.11 |
| TCTTTTCTTTTGTGTGTGCACATATAAGCATGAAAC [GTGCAC_site9910] | 10.8 ± 0.67 |
| ACTTAATTTTTTTATTGTACATGTAAATGAGGGAAA [XGTACX_site6305] | 11.2 ± 0.57 |
| TATTTTAATAAGAATAAATGAAATGAAATGAAATAT [CACACA_negctrl_site823] | 9.865 ± 0.092 |
| TATATATATATATATTGTACAAAGATTAATATATAA [XGTACX_site8433] | 10.8 ± 0.45 |
| ACATCCTATAAATAGAGTACGTAAATTATAATACAC [XGTACX_site5338] | 11.4 ± 0.97 |
| TAGTGTGCCAAATTAGCACACACATATATACATGAA [CACACA_site8910] | 10.2 ± 0.36 |
| TTTTCTAATTAATATTGTACATAAATGTATATATAT [XGTACX_site4749] | 10.9 ± 0.45 |
| GTTTTTATCATATCATGTACGTATTTTATTTTTTTT [XGTACX_site8643] | 11.6 ± 0.93 |
| CTTCTGGACAGGAATGCACACATTTTTTTTTCTTTT [CACACA_site1807] | 10.5 ± 0.17 |
| ATCAAAGATAAATTTACACACATATAAATATAAATA [CACACA_site7409] | 9.62 ± 0.028 |
| CATATATACTCATACACACACACACCGACACAGACA [CACACA_site5026] | 10.4 ± 0.34 |
| ATGATATGGATAAATACACACAATATAATAATGTCT [CACACA_site1433] | 9.99 ± 0.042 |
| TATGATGAGATAACAAAAGTTGTACTTTTTTTTTTT [CACACA_negctrl_site1172] | 11.5 ± 0.98 |
| AATATTTAACACCTTATACACACTTTCTTCCTTTTT [CACACA_site785] | 9.86 ± 0.2 |
| ATATTTTTTAGGGTCACACATACTTATTATATAAAT [CACACA_site4926] | 10.7 ± 0.4 |
| AGGAAAACAAAAGATGCATGCTAATTTTCCTCGCGT [TGCATGCA_site627] | 9.69 ± 0.17 |
| CTGAAGAAACTACAACGTACAAAATATGTATATATT [XGTACX_site3779] | 10.8 ± 0.49 |
| AAAGCACGCAAGAATACACACAAATATTATAAAAAA [CACACA_site6206] | 10.1 ± 0.24 |
| ATCCCAGTAATATATAGTACATAACTATAAGAGAAT [XGTACX_site6909] | 10.8 ± 0.59 |
| TAAAAAATTATAAAATGTACATAAAAAAAAAAAAAA [XGTACX_site3376] | 11.1 ± 1.1 |

| Sequence | gcPBM binding intensity (ln) |
| --- | --- |
| AAAATTAATAAATGAGAAAAAAGGATGAATAATGAG [CACACA_negctrl_site1614] | 10.22 ± 0.071 |
| AGAAAAAAAATGTATACACACAAATATAAAGAAGGA [CACACA_site3806] | 10.08 ± 0.028 |
| TTTATTAATTAAACCATACACACATAATTTTTTTAT [CACACA_site842] | 9.975 ± 0.064 |
| AAACGTGCGTATATGTGTACGCATATATATATATAT [XGTACX_site5252] | 11.6 ± 1 |
| TACATAAAATACCATGCATGCTAGTAAAAAAAAAAA [TGCATGCA_site650] | 9.81 ± 0.17 |
| TAATATATTTATAGAGCATGCAACGTAATATTATTA [TGCATGCA_site863] | 9.835 ± 0.035 |
| ATGGAAATAAAAAAAAAAAAAAAAAAAAATATATAT [GTGCAC_negctrl_site67] | 9.61 ± 0.21 |
| TAGCCCACATTTAATGGTACAGTGAGTATATATATG [XGTACX_site8044] | 11.1 ± 0.66 |
| AAAATGCATTTGATGTGTACGCATTATAAAGAACAA [XGTACX_site4203] | 11.6 ± 1 |
| CAAATAGCTAGCTGTGCACACAAACATATTTTCCAA [CACACA_site879] | 10.3 ± 0.15 |
| CACAAACAAAGACACACACACACACGCACAAAAATG [CACACA_site7193] | 10.6 ± 0.45 |
| AACAATTAGAACTTTGCACACTTCTATATATTTTGT [CACACA_site674] | 9.91 ± 0.2 |
| TGTATTTATAGACACACACACTTTCTTTTTTTAAGA [CACACA_site7010] | 10.09 ± 0.049 |
| TACATATATAAAAAAACACACACATATATATATATA [CACACA_site8315] | 9.92 ± 0.31 |
| TGTATAATAAGGAAGAGTACAAGTAAATACACACAT [XGTACX_site2084] | 11.3 ± 0.67 |
| TATATATATAACATTGTACACACAAAGAAATAATAT [CACACA_site8998] | 11.3 ± 0.82 |
| ATCGGTATATTATTACATGAATAAACTTACACACAC [TGCATGCA_negctrl_site21] | 10.8 ± 0.7 |
| TTGTATTAATAATTTTTTATATTATAGTTTATAATA [GTGCAC_negctrl_site130] | 9.77 ± 0.042 |
| TTTTTTCTTCGTGTATTAAGTCACAATAGGAAAAAA [GTGCAC_negctrl_site644] | 10.3 ± 0.4 |
| AAAAAAAAAGAATGTGAACACACACCGTGAATATAA [CACACA_site8342] | 10.03 ± 0.057 |
| TATATATAAAATGTATGTACATATTTATTTATATAG [XGTACX_site657] | 11.2 ± 0.77 |
| AAGTGAAATAAAATATGTACATATATGTATATATAA [XGTACX_site4473] | 11.2 ± 0.65 |

| Sequence | gcPBM binding intensity (ln) |
| --- | --- |
| CAAAATTATCAGAATCGTACATTTTTAACATATAAT [XGTACX_site7909] | 10.8 ± 0.58 |
| AAAACTATATTAATGTGTACACATCAAAATATTAAT [XGTACX_site6767] | 11.6 ± 0.84 |
| TAATATATTAAAAATAGTACATAAGAAAAATAAGTA [XGTACX_site7957] | 11.3 ± 0.86 |
| TTACAAAACACTTATACACACATATATATATATATA [CACACA_site2716] | 10.1 ± 0.26 |
| TATATATATTATATATGTACATATTGTATATTTTTG [XGTACX_site4564] | 11.1 ± 0.64 |
| ATATTTATTTTAATTTTTCTATATAAACTATTATGA [CACACA_negctrl_site739] | 9.79 ± 0.24 |
| AGGAAGGAAATAAATCAACACACATATATTATATAT [CACACA_site8678] | 9.71 ± 0.19 |
| TTTCTAAGAAAAAAAAAAAAAAAAAAAAAGATACAA [GTGCAC_negctrl_site525] | 9.69 ± 0.2 |
| AAGGAGCCTATGAACACACACATGTACAGATATTAA [CACACA_site6107] | 11.1 ± 0.52 |
| ATTATAAATATCAGTGCACACATTTCTACGCAAAGT [CACACA_site4420] | 10.4 ± 0.24 |
| TATGTAAAATGTGTTTGTACTTATTTATTATATAAA [XGTACX_site2816] | 11.3 ± 0.96 |
| AAGAACATATTATATACATGCATAATTCGATAGATT [TGCATGCA_site882] | 9.73 ± 0.071 |
| AAAATTAGATTATGCACACACACTTAAAAATAATAA [CACACA_site1975] | 10.2 ± 0.18 |
| ATAATACCCATTATCTTACAACAAAATGCAAACAAA [CACACA_negctrl_site1037] | 10.2 ± 0.24 |
| AACATAATATCATATACACACAAAAATATTGAAATA [CACACA_site2160] | 9.97 |
| TTATATAACTTTTCTAGTACTTGTATAAATTCCTAC [XGTACX_site3685] | 11 ± 0.38 |
| AAAAAAAAAGAAAAACGTACGTTTATTTAATATATA [XGTACX_site4018] | 10.8 ± 0.4 |
| TGTAGTCTGGAGAAAAGTACACAGTATCTGGTAGCT [XGTACX_site2012] | 11.5 ± 1 |
| TATATATATATATAGGTGCTATAATTTATATACACA | 10.1 ± 0.52 |
| TTTTTTTTTCTGAATTTATAATTCAAAAATATATAT [CACACA_negctrl_site300] | 9.7 ± 0.057 |
| TTAAAATATGTAGCTACACACACATAAACAAAATAA [CACACA_site8244] | 10.2 ± 0.14 |
| TAATTATAATAATAACGTACATATATAAAATGGTGA [XGTACX_site8434] | 11.3 ± 0.83 |

| Sequence | gcPBM binding intensity (ln) |
| --- | --- |
| GTTTTTTTATAAAATTTTTATATAATTCTTTTATAA [CACACA_negctrl_site1605] | 9.67 ± 0.042 |
| AAAAAAAAAAAAAACACACATACACGCCCACCCATA [CACACA_site3391] | 10.9 ± 0.44 |
| TTTTATTTTTTCTATACATGCATGTCCAATTTTCTT [TGCATGCA_site304] | 10.4 ± 0.31 |
| TTATGGTATAAAAAAATACACACTTATATATATTCT [CACACA_site488] | 9.935 ± 0.007 |
| AATAAAAATATTATATGTACATATTTTAATATATAT [XGTACX_site1259] | 11.2 ± 0.75 |
| TAATAATAAAAAATACGTACATATTATTTATATATG [XGTACX_site853] | 11.4 ± 0.76 |
| CATTTTATTCTATATGCATGTTAAAAAATGTGTTGA [TGCATGCA_site128] | 10 ± 0.2 |
| ATATATAAGAACATATATATTGGAAATATTGAATTT [XGTACX_negctrl_site121] | 9.66 ± 0.18 |
| TTTGCAACATATAAAAGTACAAATAATATATTTATT [XGTACX_site890] | 11 ± 0.71 |
| TTTATTATATGCACACGTACATATAATATATATATA [XGTACX_site4108] | 11.2 ± 0.92 |
| AGCAGTTTTTTTTTTTTTTTTTTTTTTATTAAAAGC [XGTACX_negctrl_site392] | 9.8 ± 0.13 |
| AACTGTAATTTTATACGTACATAAATAATATTATAT [XGTACX_site4277] | 11.7 ± 0.93 |
| ATAATAAATCATCATATTACATTTATCTTTGTTGGA [CACACA_negctrl_site849] | 9.56 ± 0.19 |
| TACTTATTTTTATAGCATTTCACGGAGGTAGTAATA [CACACA_negctrl_site468] | 10 ± 0.13 |
| CAATAAATAATAAATACATGCAAGTATGAAGATATA [TGCATGCA_site859] | 9.71 ± 0.25 |
| TGTTTGATGGTACACGTACACACCTTGCAAATATTT [CACACA_site888] | 11.8 ± 1.2 |
| AATATAAAATAGAAAAATGAAAAAAAAAAAAAGGGT [CACACA_negctrl_site1263] | 10.2 ± 0.31 |
| TATATATATTTTAACACACACATATATATATTTATA [CACACA_site2765] | 9.835 ± 0.007 |
| AAGTATAAAATATTTTGTACTTAAAAAATTATATGG [XGTACX_site2180] | 11.2 ± 0.9 |
| AATAAGAATTAAAAATGTACAAAAAAATGTATTTAT [XGTACX_site8005] | 10.9 ± 0.38 |
| AGTGGGATTTTTAATTGTACATAAATAATATCATAA [XGTACX_site4163] | 11.1 ± 0.69 |
| CATGTTATATATATATGTACTAAAAATATAATATAA [XGTACX_site1978] | 11 ± 0.6 |
